Among all 52,000 compounds or so, about 1,700 (3.3%) were called active. No stated cut-off is given here; in the data, active means survival mostly below about 52% (no sharp cut-off); inactive means mostly above about 56%. Some of the results follow.

The experiment concerns Wild type. As to the kind of experiment: growth inhibition of S. aureus wild type versus tarO mutant, primary screen, teichoic acid synthesis inhibitors, RN4220, OD600 (AID 463173). To be noted: S. aureus RN4220 wild type/DeltatarO growth, OD600, 18 h, hits give low values, screened at 18.75 µg/mL (by protocol).
For `O=C(NCCNCc1ccco1)c1ccccc1`, the survival was inactive: 115%. `COc1ccccc1NC(=O)CSc1nncn2c1cc1sccc12`: the survival was inactive: 96%. With `CCC(=O)C1=C(c2ccc(F)cc2)N(C(=O)CC)n2cnnc2S1` the figure was inactive: 133%; with `Cc1ccccc1CN1C(=O)c2ccccc2S(=O)c2ccc(C(=O)NCc3ccc(Cl)cc3)cc21` (configuration not stated), inactive: 92%. With `Cc1ccc2cccc(NC(=O)c3ccc(OC(C)C)cc3)c2n1` the figure was inactive: 106%. As for `CCc1ccccc1NC(=O)CN(c1ccccc1)S(=O)(=O)c1ccsc1C(=O)OC`, the survival is inactive: 131%.

`O=C(NCc1ccc2c(c1)OCO2)c1ccc2c(c1)N(Cc1ccccc1F)C(=O)c1ccccc1S2`: the survival is inactive: 69%.

`CN(CCC(N)=O)Cc1ccccc1`: the survival was inactive: 107%.

Regarding `CS(=O)(=O)N1CCSC1c1ccc(Cl)cc1Cl` (configuration not stated), the survival was inactive: 121%.

Regarding `Cc1c(Cl)cccc1NC(=O)c1ccc2c(c1)CCCN2S(C)(=O)=O`, the survival was inactive: 90%. As to `CC(C)c1ccc(OCC(=O)NCCS(=O)(=O)N2CCN(c3ccc(F)cc3)CC2)cc1`, the survival is inactive: 71%. For the compound `Cc1ccc(CNC(=O)Nc2cc(C(=O)NCc3ccc(C(C)C)cc3)ccc2N2CCCC2)cc1`, the survival is inactive: 71%. The result for `CC(C)(C)OC(=O)N1CCC(c2c(C(=O)NCCN3CCc4ccccc4C3)cnn2-c2ccc(F)cc2)CC1` reads inactive: 74%.

Regarding `CCCCOc1ccc(C(=O)Nc2ccc(-c3cc4ccccc4oc3=O)cc2)cc1`, the survival was inactive: 75%. With `CCN1C(=O)c2ccccc2Sc2ccc(NC(=O)N3CCN(c4cc(C)ccc4C)CC3)cc21` the figure was inactive: 84%; with `CCOC(=O)c1ccc(NC(=O)C(CC)Sc2nc3ccncc3[nH]2)cc1` (configuration not stated), inactive: 136%.

For `Cc1cc(C)cc(-n2c(C)cc(C(=O)C(=O)Nc3ccccc3F)c2C)c1`, the survival was inactive: 92%. In the case of `COc1ccccc1C(=O)N1c2ncnn2C2(CCCCC2)[C@@H]2CCCC[C@@H]21`, the survival is inactive: 78%.

In the case of `COc1ccc(Cn2c(C(=O)O)c(CNC3CCCC3)c3ccc(OC)cc32)cc1`, the survival is inactive: 91%.

Regarding `CCn1c(=O)cc(SCC(=O)NCc2cccc(Cl)c2)c2ccccc21`, the survival was inactive: 60%. Take `C=CCn1c(=N)c(C(N)=O)cc2c(=O)n3ccccc3nc21`: the survival was inactive: 105%.

As to `CSc1nc(Nc2ccc(F)cc2)cc(-c2ccccc2)n1`, the survival is active: -2%.

Turning to `CCOc1ccc(-c2nn(-c3ccccc3)cc2C2NC(=O)NC(C)=C2C(=O)OC(C)C)cc1` (configuration not stated), the survival is inactive: 89%.

Take `CCOc1ccc(-c2nnc(SCC(=O)Nc3cccc(OC)c3)nc2-c2ccc(OCC)cc2)cc1`: the survival is active: -3%.

As to `O=C(NCC(c1ccc(Cl)cc1)N1CCOCC1)c1ccccc1F` (configuration not stated), the survival is inactive: 91%. `COc1cccc(C2CC(=O)Nc3c2c(=O)[nH]c2nc4ccccc4n32)c1` (configuration not stated): the survival was inactive: 151%.

As to `O=C(COc1ccc([N+](=O)[O-])cc1)Nc1nc2c(s1)CCCC2`, the survival was inactive: 101%. Consider `COc1ccc(C(=O)NCC(c2ccc3c(c2)OCO3)N2CCN(c3ccccc3F)CC2)cc1` (configuration not stated), for which the survival is inactive: 77%. For the compound `Cc1ccccc1-c1nnn(CC(=O)Nc2sc3c(c2C#N)CCC(C(C)(C)C)C3)n1` (configuration not stated), the survival is inactive: 78%. The result for `CCc1ccc(NC(=O)Cn2c(=O)n(CCCCC(=O)NCCc3ccc(Cl)cc3)c(=O)c3ccccc32)cc1` reads inactive: 98%; that for `O=C1CCCc2cc(S(=O)(=O)N3CCCC(C(=O)NCc4ccc(Cl)cc4)C3)ccc2N1` (configuration not stated), inactive: 68%; that for `COc1cc(OC)cc(-c2nc(-c3ccc4c(c3)[nH]c(=O)n4C)no2)c1`, inactive: 73%.

For `Cc1ccc2ncc(C(=O)Nc3ccc(OC(F)(F)F)cc3)c(=O)n2c1`, the survival is inactive: 88%. With `O=c1[nH]c2ccc(NCc3ccc(-c4ccc(Br)cc4)o3)cc2[nH]1` the figure was inactive: 92%; with `CCOC(=O)c1c(NC(=O)c2nc(S(C)(=O)=O)ncc2Cl)sc(C(C)=O)c1C`, inactive: 15%; with `Cc1ccc2c(c1)nnn2C1CCN(C(=O)Nc2ccc(C#N)cc2)CC1`, inactive: 111%. `Cc1ccc(-c2cc(C(=O)NCc3ccccc3Cl)c3ccccc3n2)cc1C`: the survival was inactive: 54%. With `O=C(Nc1ccccc1C(F)(F)F)n1ncc2cc(Cl)ccc21` the figure was inactive: 105%; with `COc1ccc2cc3c(N)nn(C(=O)c4ccc(OC)c(OC)c4)c3nc2c1`, inactive: 137%. Regarding `COc1cccc(CNC(=O)C2CCN(S(=O)(=O)c3ccc4c(c3)CCCN4C(C)=O)CC2)c1`, the survival was inactive: 132%. With `Cc1ccc2c(c1)N(CCCC(=O)Nc1cccc(C(F)(F)F)c1)C(=O)CO2` the figure was inactive: 83%.

With `CCOC(=O)c1[nH]c2ccccc2c1NC(=O)c1ccc(Br)cc1`, the survival is inactive: 111%. The result for `O=C(Nc1nncs1)C1c2ccccc2Oc2ccccc21` reads inactive: 110%.

On to `CCOc1ccc(-c2nc3c(c(SCC(=O)N4CCCCC4)n2)Cc2cccc(OC)c2O3)cc1`, for which the survival was inactive: 75%. With `CCCCN1C(=O)C(O)(CC(=O)c2ccc(C(C)(C)C)cc2)c2ccccc21` (configuration not stated) the figure was active: 3%. With `COc1cc(NC(=O)Cn2cc(C(=O)c3ccc(F)cc3)c(=O)c3ccc(C)nc32)cc(OC)c1` the figure was inactive: 91%; with `Cc1ccc2nc3c(cc(C#N)c(=O)n3-c3nnc(SCc4ccccc4)s3)c(=O)n2c1`, inactive: 101%. With `CCOc1ccc(NC(=O)c2ncoc2-c2ccco2)cc1` the figure was inactive: 80%; with `Cc1cccc(CSc2ncc(Cl)c(C(=O)Nc3nc4ccc(F)cc4s3)n2)c1`, inactive: 77%. Take `CN(C(=O)c1cccc(C#N)c1)c1nnc(C2CCOC2)s1` (configuration not stated): the survival is inactive: 111%. The result for `COc1cccc(CNC(=O)c2ccc(-n3c(C)cc4c3CCC(C)C4)cc2)c1` (configuration not stated) reads inactive: 66%; that for `CC(C)NC(=O)c1ccc(NC(=O)N2CCCCc3ccccc32)cc1`, inactive: 82%; that for `CCOc1cc(C#N)c(NC(=O)Cn2nnc(-c3ccc(C)cc3)n2)cc1OCC`, inactive: 81%. For the compound `O=C(Cn1c(=O)nc(-c2ccccc2)c2cc(Cl)ccc21)Nc1ccc(F)c(Cl)c1`, the survival is inactive: 84%. The result for `Cc1ccc(NC(=O)c2cnn3c2NC(c2ccccc2)=CC3c2ccccc2)cc1` (configuration not stated) reads inactive: 73%; that for `CCCn1c2ccccc2c2nnc(SCC(=O)Nc3cccc(C(C)=O)c3)nc21`, inactive: 83%; that for `CCN(Cc1ccccc1)C(=O)c1cnn(-c2ccc(F)cc2)c1-n1cccc1`, inactive: 71%.
